Test results reported in the supplement of paper PMC10126150.
Sequences with one replicate were seen in a single cluster, so their values are uncertain.

Test system: ATP
Test: switch fluorescence ratio, 500 uM ATP over buffer (Cy3 cluster intensity, sum of 5 cycles each) (fold (ratio)); higher = stronger signal-on switching upon ATP binding; sequences stand for … in TCGTCGGCAGCGTCAGATGTGTATAAGAGACAGTTTTTTTTTTTTTTTTTTTTTTTTT…TC
Details: aptamer strand: ATP DNA aptamer (quencher-CACCTGGGGGAGTATTGCGGAGGAAGG + anchor), 100 nM annealed; ATP concentration: 500 uM; one replicate
Outline: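 Values give the fluorescence ratio for each switch-domain sequence, averaged from per-cluster ratios of summed target-cycle to summed buffer-cycle Cy3 intensity. The Cy3-labelled switching-strand clusters sat on a modified Illumina MiSeq flow-cell, were annealed to 100 nM quencher-labelled ATP aptamer, and were imaged in selection buffer, then after 15 min with 500 uM ATP at 22 °C. Five cycles ran with NaOH stripping and re-annealing between them, and clusters outside 100-1000 RFU were excluded.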
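Also: ATP exposure 15 min at 22 °C before imaging.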

## GCCGTGTGTG
  switch fluorescence ratio: 1.01

## ATTGCTGATT
  switch fluorescence ratio: 0.949

## ATCTTAGAGA
  switch fluorescence ratio: 1

## ATCAATCGCG
  switch fluorescence ratio: 0.978

## TATGTAGGTG
  switch fluorescence ratio: 1.12

## TCACGTAAAG
  switch fluorescence ratio: 1.21

## TAATATCTAG
  switch fluorescence ratio: 1.04

## ACGGTTCTGG
  switch fluorescence ratio: 0.988

## CACCCCTGTA
  switch fluorescence ratio: 1.05

## CGTTAGGAGC
  switch fluorescence ratio: 1.01

## TTCCCCTGGT
  switch fluorescence ratio: 0.993

## ATAAGCCATC
  switch fluorescence ratio: 1.07

## TTGTATGTT
  switch fluorescence ratio: 1

## AACAAGATGT
  switch fluorescence ratio: 1.02

## TTCTCTGAGA
  switch fluorescence ratio: 0.978

## ATTTTGGTGG
  switch fluorescence ratio: 1.01

## CTCATGGCG
  switch fluorescence ratio: 1.14

## TGTATGAGTT
  switch fluorescence ratio: 0.987

## ACATATGAGT
  switch fluorescence ratio: 1.02

## AACAGCTGCG
  switch fluorescence ratio: 1.05

## AAGTGGGATA
  switch fluorescence ratio: 0.98

## TCTCCACTCG
  switch fluorescence ratio: 1.17

## GCCTCATTC
  switch fluorescence ratio: 0.935

## ATTCACACTG
  switch fluorescence ratio: 1.07

## AACGGAGAC
  switch fluorescence ratio: 1.08

## ACGCCGCTTA
  switch fluorescence ratio: 1.77

## TGCGGTTTGG
  switch fluorescence ratio: 1.01

## TCGCTGGCTA
  switch fluorescence ratio: 0.999

## AAATAGACTT
  switch fluorescence ratio: 1.09

## ATGCAGGCCA
  switch fluorescence ratio: 1.16

## CCTGGATAT
  switch fluorescence ratio: 1.01

## AGGCCACGCC
  switch fluorescence ratio: 1.66

## AGAAATCGAA
  switch fluorescence ratio: 1.03

## TTACTCTTG
  switch fluorescence ratio: 1.14

## TCATCTGTAT
  switch fluorescence ratio: 1.04

## GCTCTTTTGT
  switch fluorescence ratio: 0.973

## GTTTTGTTCT
  switch fluorescence ratio: 0.987

## ACTTGCTTGA
  switch fluorescence ratio: 0.977

## TAACTAATCC
  switch fluorescence ratio: 1.07

## GGAAAGTAGT
  switch fluorescence ratio: 0.98

## TAAGACTAGG
  switch fluorescence ratio: 1.03

## TACCAGAAT
  switch fluorescence ratio: 0.99

## GCAAGACTAG
  switch fluorescence ratio: 1.06

## TTCAATGCAG
  switch fluorescence ratio: 1

## TGCGGACAAT
  switch fluorescence ratio: 1.04

## AGGGTAGACG
  switch fluorescence ratio: 1.1

## CTGAATGCTA
  switch fluorescence ratio: 1.32

## GGTCCGCAAG
  switch fluorescence ratio: 4.5

## ACTGCAGCA
  switch fluorescence ratio: 1.09

## CCGCGGCACG
  switch fluorescence ratio: 1.5

## AATCTGTCG
  switch fluorescence ratio: 1.04

## CCCCCGTTAT
  switch fluorescence ratio: 2.42

## TTCTTATCAT
  switch fluorescence ratio: 1.27

## GGAGAACTTT
  switch fluorescence ratio: 0.995

## CCACGTGGCA
  switch fluorescence ratio: 1.03

## AGGTTGCATC
  switch fluorescence ratio: 0.944

## CAACTTTGAC
  switch fluorescence ratio: 0.987

## CAAAACTATT
  switch fluorescence ratio: 1

## CATAATCAAT
  switch fluorescence ratio: 0.99

## TCGCGCCGAC
  switch fluorescence ratio: 1.07

## GAGATTAGTG
  switch fluorescence ratio: 0.992

## GGCGCATGGT
  switch fluorescence ratio: 1.02

## CTAGAGGT
  switch fluorescence ratio: 1.03

## AGCCCGTCCT
  switch fluorescence ratio: 1.04

## GGTGTGCTGC
  switch fluorescence ratio: 1.03

## GAGATAACTT
  switch fluorescence ratio: 1.03

## AAATCTAGGA
  switch fluorescence ratio: 0.999

## TGGAAATGTT
  switch fluorescence ratio: 1

## CCGGCCGGAC
  switch fluorescence ratio: 1.04

## ACCTTAGAAT
  switch fluorescence ratio: 1.04

## CTTGTTTCAT
  switch fluorescence ratio: 0.999

## CCGTTCCAGT
  switch fluorescence ratio: 1.03

## TTATGGAACT
  switch fluorescence ratio: 1.05

## TCCGTTGAGT
  switch fluorescence ratio: 1.02

## GGGCGTCTAC
  switch fluorescence ratio: 1.02

## GCAGCGAAAG
  switch fluorescence ratio: 1.06

## AGGTTGTACG
  switch fluorescence ratio: 0.992

## TTAATGCAGA
  switch fluorescence ratio: 0.963

## CTGCTGTAGA
  switch fluorescence ratio: 1.06

## TGAAACTCGG
  switch fluorescence ratio: 0.964

## ACTTTTAGCG
  switch fluorescence ratio: 1.06

## GGCCAAGGG
  switch fluorescence ratio: 1.01

## AGGTAGGAGG
  switch fluorescence ratio: 1.02

## GGCCAATA
  switch fluorescence ratio: 1.03

## CCGTTCCGAG
  switch fluorescence ratio: 1.89

## ACCGTAACGC
  switch fluorescence ratio: 1.45

## GATGGTTGGT
  switch fluorescence ratio: 1.01

## AGTTCTGAGC
  switch fluorescence ratio: 1.03

## AGGCGCGGGA
  switch fluorescence ratio: 1.02

## CGGGCCAAGA
  switch fluorescence ratio: 1.01

## CAATCTGTAC
  switch fluorescence ratio: 1.09

## AAGGTTAACT
  switch fluorescence ratio: 0.987

## GGAATAGTTA
  switch fluorescence ratio: 1.02

## CAGTTAGTAG
  switch fluorescence ratio: 1.01

## GACCAGGAAG
  switch fluorescence ratio: 0.933

## CTAATTAAGC
  switch fluorescence ratio: 1.02

## CGATGATCGT
  switch fluorescence ratio: 0.946

## TTGCTCGAGA
  switch fluorescence ratio: 0.953

## GGGTCTTATA
  switch fluorescence ratio: 0.971

## TGTTTATTAT
  switch fluorescence ratio: 0.98

## CAGGAATTGT
  switch fluorescence ratio: 0.982

## TCGTAAATAA
  switch fluorescence ratio: 1.09

## TTATGGCAGT
  switch fluorescence ratio: 0.993

## ATTGCACCTT
  switch fluorescence ratio: 1.09

## GTCCTCTATA
  switch fluorescence ratio: 1.04

## TCCCTTAAAG
  switch fluorescence ratio: 0.991

## CCGCCTCCTT
  switch fluorescence ratio: 3.08

## ATGGATTGAC
  switch fluorescence ratio: 1.05

## ACCAAATTGT
  switch fluorescence ratio: 1.11

## GGATTAGAGC
  switch fluorescence ratio: 0.98

## CACTTTTGTT
  switch fluorescence ratio: 0.959

## TTTCTAATCG
  switch fluorescence ratio: 1.02

## ATCAGATTTG
  switch fluorescence ratio: 1

## ATCTTTTGCG
  switch fluorescence ratio: 1.07

## ACAGTGAGAG
  switch fluorescence ratio: 0.957

## TGCCCTGCGG
  switch fluorescence ratio: 1.02

## AACTATACCA
  switch fluorescence ratio: 1.21

## GGGGATTGT
  switch fluorescence ratio: 0.976

## TAGTTCATAA
  switch fluorescence ratio: 0.985

## CGGACCCGCG
  switch fluorescence ratio: 1.03

## GGTCTCCAAC
  switch fluorescence ratio: 1.01

## AGGAAAAAAT
  switch fluorescence ratio: 1.01

## GTAAGTAAGC
  switch fluorescence ratio: 1.31

## TAAAGACTAG
  switch fluorescence ratio: 1.05

## GATCGTACGT
  switch fluorescence ratio: 0.965

## ATCATTTCTT
  switch fluorescence ratio: 1.02

## CGGCATTCTC
  switch fluorescence ratio: 2.38

## GTTTCCTAGG
  switch fluorescence ratio: 1.01

## GTTTTGCCTA
  switch fluorescence ratio: 0.955

## ATTCAATTCT
  switch fluorescence ratio: 0.953

## ATGTGCAAGA
  switch fluorescence ratio: 1.07

## GACGAAAGTG
  switch fluorescence ratio: 1.01

## TTGCACAGA
  switch fluorescence ratio: 1.02

## AAAGTCCTCT
  switch fluorescence ratio: 0.967

## AAAATGGGG
  switch fluorescence ratio: 1.01

## GCCTTCTGTC
  switch fluorescence ratio: 0.931

## CTAATTGAAA
  switch fluorescence ratio: 1.01

## CGGCGCTGCT
  switch fluorescence ratio: 1.03

## TTAACAGCCA
  switch fluorescence ratio: 1.07

## GTGTTATGCT
  switch fluorescence ratio: 0.976

## CCTGAATCTG
  switch fluorescence ratio: 1.18

## GGCCTTAGCT
  switch fluorescence ratio: 1.02

## ACAGAGTGGA
  switch fluorescence ratio: 1.02

## GGTTTCGATT
  switch fluorescence ratio: 0.976

## GCGTGACCTT
  switch fluorescence ratio: 1.14

## TAGGGTGTGA
  switch fluorescence ratio: 0.963

## GCAATCAAAG
  switch fluorescence ratio: 1.22

## AGATTCTATC
  switch fluorescence ratio: 1.01

## GAACAAGTAA
  switch fluorescence ratio: 0.992

## TGAGGGATCG
  switch fluorescence ratio: 1.08

## GAGATGCTCC
  switch fluorescence ratio: 1.1

## AGGGGGACTA
  switch fluorescence ratio: 1.05

## CCTCGTTCAC
  switch fluorescence ratio: 3.04

## CAGCGGAGGC
  switch fluorescence ratio: 1.04

## GGAGAGAAGG
  switch fluorescence ratio: 0.939

## ATAAGGGTTG
  switch fluorescence ratio: 1.01

## TTAAATAATG
  switch fluorescence ratio: 1.01

## ACTTTTTCTG
  switch fluorescence ratio: 1.02

## TCAACTATGA
  switch fluorescence ratio: 1.02

## ATCTTCGAGA
  switch fluorescence ratio: 1.01

## GAATGCTCTT
  switch fluorescence ratio: 0.998

## GCTGTAGATG
  switch fluorescence ratio: 0.993

## TGTAGGAGAA
  switch fluorescence ratio: 1

## TTTGCACTTA
  switch fluorescence ratio: 1.12

## CGTCTGCGCT
  switch fluorescence ratio: 0.966

## CTTGATTCAC
  switch fluorescence ratio: 0.99

## CGTTGCGCCC
  switch fluorescence ratio: 1.03

## CGTGATTTAG
  switch fluorescence ratio: 0.953

## ATCGCAAATA
  switch fluorescence ratio: 1.83

## CGCCCATGGT
  switch fluorescence ratio: 1.7

## ACAGATGGCA
  switch fluorescence ratio: 1.08

## TACTGCGAC
  switch fluorescence ratio: 1.3

## CAGGTTAAG
  switch fluorescence ratio: 1.03

## TATGTCTCAG
  switch fluorescence ratio: 0.992

## CCGCTCTAAT
  switch fluorescence ratio: 2.08

## TGTCGGTTAG
  switch fluorescence ratio: 0.963

## AGCAAACGGT
  switch fluorescence ratio: 1.21

## CCAGGGGATT
  switch fluorescence ratio: 1.14

## TGTGGAAACA
  switch fluorescence ratio: 0.99

## TTAGTTCAGG
  switch fluorescence ratio: 1.01

## CTGATGGATG
  switch fluorescence ratio: 1.03

## ACTTGGAGCT
  switch fluorescence ratio: 1.02

## GCAGACC
  switch fluorescence ratio: 1.05

## CAAAAATTTG
  switch fluorescence ratio: 1.02

## AACTCCGTA
  switch fluorescence ratio: 1.31

## CAGGTCGCTG
  switch fluorescence ratio: 0.994

## TGAATACCTT
  switch fluorescence ratio: 1.13

## GCGAACCCTC
  switch fluorescence ratio: 1.09

## CCGATAATC
  switch fluorescence ratio: 3.21

## GGGCAGCAAC
  switch fluorescence ratio: 1.13

## GTGGTTTGCA
  switch fluorescence ratio: 0.987

## GTATCCTCCC
  switch fluorescence ratio: 1.25

## CGTCGGCGGG
  switch fluorescence ratio: 1.03

## TCCGAAAGTA
  switch fluorescence ratio: 1.23

## CGATGGCCAA
  switch fluorescence ratio: 0.977

## AAGTCCAGAG
  switch fluorescence ratio: 1.03

## GGCGAGTATT
  switch fluorescence ratio: 1.01

## CTCACGTCGA
  switch fluorescence ratio: 1.3

## AAACTTATTG
  switch fluorescence ratio: 0.973

## TTTAATCCAA
  switch fluorescence ratio: 1.1

## TAAGTCATCG
  switch fluorescence ratio: 1.03
